# The other results are listed elsewhere or left out.
# B1: BTL (Bryothamnion triquetrum) (protein)
# chain: ADPICGSSGYSCTTPAILTPKSPGSFPSGYSKVIVTGVGGSYSVYIHRPDGFKVYKASEGGCASFGSYSGGGNSEVGKYGSGGTVVAVACK
# Key:
# Assay in all cases: glycan array binding signal (z-score within array); higher = stronger binding
# Conditions in all cases: glycan notation: IUPAC condensed, linker removed
# [1] = target: GalNAc(b1-4)GlcNAc
# Outline: (§1)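 The binding signal is a Z-score computed within each array and averaged over linkers. Arrays of the same protein sequence at different concentrations or buffers were also averaged together. Data originate from 3228 arrays in the Consortium for Functional Glycomics database, kept only where the protein sequence was available.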
# [2] = target: GalNAc(b1-4)GlcNAc(b1-2)Man
# Outline: as §1
# [3] = target: GalNAc(b1-4)GlcNAc(b1-2)Man(a1-3)[GalNAc(b1-4)GlcNAc(b1-2)Man(a1-6)]Man(b1-4)GlcNAc(b1-4)GlcNAc
# Outline: as §1
# [4] = target: GalNAc(b1-4)GlcNAc(b1-3)GalNAc(b1-4)GlcNAc
# Outline: as §1
# [5] = target: GalNAc(b1-4)GlcNAc6S
# Outline: as §1
# [6] = target: GalNAc(b1-6)GalNAc
# Outline: as §1
# [7] = target: GalNAc3S(b1-4)GlcNAc
# Outline: as §1
# [8] = target: GalNAc3S(b1-4)GlcNAc3S
# Outline: as §1
# [9] = target: GalNAc3S(b1-4)[Fuc(a1-3)]GlcNAc
# Outline: as §1
# [10] = target: GalNAc4S6S(b1-4)GlcNAc
# Outline: as §1
# [11] = target: GalNAc6S(b1-4)GlcNAc
# Outline: as §1
# [12] = target: Glc(a1-4)Glc
# Outline: as §1
# [13] = target: Glc(a1-4)Glc(a1-4)Glc(a1-4)Glc
# Outline: as §1
# [14] = target: Glc(a1-6)Glc(a1-6)Glc
# Outline: as §1
# [15] = target: Glc(a1-6)Glc(a1-6)Glc(a1-6)Glc
# Outline: as §1
# [16] = target: Glc(b1-4)Glc
# Outline: as §1
# [17] = target: Glc(b1-6)Glc
# Outline: as §1
# [18] = target: GlcA(b1-3)Gal
# Outline: as §1
# [19] = target: GlcA(b1-3)GlcNAc
# Outline: as §1
# [20] = target: GlcA(b1-6)Gal
# Outline: as §1
# [21] = target: GlcA3S(b1-3)Gal(b1-4)GlcNAc(b1-2)Man
# Outline: as §1
# [22] = target: GlcA3S(b1-3)Gal(b1-4)GlcNAc(b1-3)Gal(b1-4)Glc
# Outline: as §1
# [23] = target: GlcNAc(a1-3)Gal(b1-4)GlcNAc
# Outline: as §1
# [24] = target: GlcNAc(a1-4)Gal(b1-3)GlcNAc
# Outline: as §1
# [25] = target: GlcNAc(a1-4)Gal(b1-4)GalNAc
# Outline: as §1
# [26] = target: GlcNAc(a1-4)Gal(b1-4)GlcNAc
# Outline: as §1
# [27] = target: GlcNAc(a1-4)Gal(b1-4)GlcNAc(b1-3)Gal(b1-4)Glc
# Outline: as §1
# [28] = target: GlcNAc(a1-4)Gal(b1-4)GlcNAc(b1-3)Gal(b1-4)GlcNAc
# Outline: as §1
# [29] = target: GlcNAc(a1-4)Gal(b1-4)GlcNAc(b1-3)Gal(b1-4)GlcNAc(b1-3)Gal(b1-4)GlcNAc
# Outline: as §1
# [30] = target: GlcNAc(a1-4)Gal(b1-4)GlcNAc(b1-3)Gal(b1-4)[Fuc(a1-3)]GlcNAc(b1-3)Gal(b1-4)[Fuc(a1-3)]GlcNAc
# Outline: as §1
# [31] = target: GlcNAc(a1-6)Gal(b1-4)GlcNAc
# Outline: as §1
# [32] = target: GlcNAc(b1-2)Gal(b1-3)GalNAc
# Outline: as §1
# [33] = target: GlcNAc(b1-2)Man(a1-3)[GlcNAc(b1-2)Man(a1-6)]Man(b1-4)GlcNAc(b1-4)GlcNAc
# Outline: as §1
# [34] = target: GlcNAc(b1-2)Man(a1-3)[GlcNAc(b1-2)Man(a1-6)]Man(b1-4)GlcNAc(b1-4)[Fuc(a1-6)]GlcNAc
# Outline: as §1
# [35] = target: GlcNAc(b1-2)Man(a1-3)[GlcNAc(b1-4)][GlcNAc(b1-2)Man(a1-6)]Man(b1-4)GlcNAc(b1-4)GlcNAc
# Outline: as §1
# [36] = target: GlcNAc(b1-2)Man(a1-3)[GlcNAc(b1-4)][GlcNAc(b1-2)Man(a1-6)]Man(b1-4)GlcNAc(b1-4)[Fuc(a1-6)]GlcNAc
# Outline: as §1
# [37] = target: GlcNAc(b1-2)[GlcNAc(b1-4)]Man(a1-3)[GlcNAc(b1-2)Man(a1-6)]Man(b1-4)GlcNAc(b1-4)GlcNAc
# Outline: as §1
# [38] = target: GlcNAc(b1-2)[GlcNAc(b1-4)]Man(a1-3)[GlcNAc(b1-4)][GlcNAc(b1-2)Man(a1-6)]Man(b1-4)GlcNAc(b1-4)GlcNAc
# Outline: as §1
# [39] = target: GlcNAc(b1-2)[GlcNAc(b1-4)]Man(a1-3)[GlcNAc(b1-4)][GlcNAc(b1-2)[GlcNAc(b1-6)]Man(a1-6)]Man(b1-4)GlcNAc(b1-4)GlcNAc
# Outline: as §1
# [40] = target: GlcNAc(b1-2)[GlcNAc(b1-4)]Man(a1-3)[GlcNAc(b1-4)][GlcNAc(b1-2)[GlcNAc(b1-6)]Man(a1-6)]Man(b1-4)GlcNAc(b1-4)[Fuc(a1-6)]GlcNAc
# Outline: as §1
# [41] = target: GlcNAc(b1-2)[GlcNAc(b1-6)]Man(a1-6)[GlcNAc(b1-2)Man(a1-3)]Man(b1-4)GlcNAc(b1-4)GlcNAc
# Outline: as §1
# [42] = target: GlcNAc(b1-2)[GlcNAc(b1-6)]Man(a1-6)[GlcNAc(b1-2)Man(a1-3)]Man(b1-4)GlcNAc(b1-4)[Fuc(a1-6)]GlcNAc
# Outline: as §1
# [43] = target: GlcNAc(b1-2)[GlcNAc(b1-6)]Man(a1-6)[GlcNAc(b1-4)][GlcNAc(b1-2)Man(a1-3)]Man(b1-4)GlcNAc(b1-4)GlcNAc
# Outline: as §1
# [44] = target: GlcNAc(b1-3)Fuc
# Outline: as §1
# [45] = target: GlcNAc(b1-3)Gal
# Outline: as §1
binder,measurement,setting,value
B1,glycan array binding signal (z-score),[1],-0.193
same,glycan array binding signal (z-score),[2],-0.248
same,glycan array binding signal (z-score),[3],-0.188
same,glycan array binding signal (z-score),[4],-0.255
same,glycan array binding signal (z-score),[5],-0.172
same,glycan array binding signal (z-score),[6],-0.312
same,glycan array binding signal (z-score),[7],-0.119
same,glycan array binding signal (z-score),[8],-0.207
same,glycan array binding signal (z-score),[9],-0.204
same,glycan array binding signal (z-score),[10],-0.129
same,glycan array binding signal (z-score),[11],-0.282
same,glycan array binding signal (z-score),[12],-0.235
same,glycan array binding signal (z-score),[13],-0.182
same,glycan array binding signal (z-score),[14],-0.253
same,glycan array binding signal (z-score),[15],-0.228
same,glycan array binding signal (z-score),[16],-0.303
same,glycan array binding signal (z-score),[17],-0.263
same,glycan array binding signal (z-score),[18],-0.274
same,glycan array binding signal (z-score),[19],-0.195
same,glycan array binding signal (z-score),[20],-0.255
same,glycan array binding signal (z-score),[21],-0.231
same,glycan array binding signal (z-score),[22],-0.238
same,glycan array binding signal (z-score),[23],-0.194
same,glycan array binding signal (z-score),[24],-0.25
same,glycan array binding signal (z-score),[25],-0.231
same,glycan array binding signal (z-score),[26],-0.216
same,glycan array binding signal (z-score),[27],-0.269
same,glycan array binding signal (z-score),[28],-0.246
same,glycan array binding signal (z-score),[29],-0.198
same,glycan array binding signal (z-score),[30],0.249
same,glycan array binding signal (z-score),[31],-0.171
same,glycan array binding signal (z-score),[32],-0.254
same,glycan array binding signal (z-score),[33],-0.045
same,glycan array binding signal (z-score),[34],3.99
same,glycan array binding signal (z-score),[35],-0.276
same,glycan array binding signal (z-score),[36],0.858
same,glycan array binding signal (z-score),[37],-0.218
same,glycan array binding signal (z-score),[38],-0.274
same,glycan array binding signal (z-score),[39],-0.272
same,glycan array binding signal (z-score),[40],0.154
same,glycan array binding signal (z-score),[41],-0.29
same,glycan array binding signal (z-score),[42],4.85
same,glycan array binding signal (z-score),[43],-0.319
same,glycan array binding signal (z-score),[44],-0.172
same,glycan array binding signal (z-score),[45],-0.287

# — the supplement of paper PMC8728848
